Measured values: PubChem BioAssay AID1347417 (National Center for Advancing Translational Sciences (NCATS), 2020)
The whole screen tested about 120,000 compounds, of which about 5,300 (4.4%) were called active. Inconclusive results, whose numbers are uncertain, are shown with a selection of clear calls. The call rests on the fitted dose curve; in most records, active means well fitted inhibition curve with a large enough effect; inconclusive means small, poorly fitted or top-dose-only effect; inactive means no such curve, though single readings can be large or run the other way. Where the call is inconclusive, the potency comes from a doubtful curve fit.
Potency means the concentration at half of the fitted maximal effect; tags describe the fitted curve by direction and shape.

Assay: qHTS Primary assay for Inhibitors of Plasmodium falciparum Dd2 growth in vitro; further: nearly all actives have a fitted effect of over 65% in size;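 on activity, negative = inhibition: plate controls were DMSO vehicle for no effect and reference drug for full effect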
Conditions: P. falciparum Dd2 growth, SYBR Green, 72 h; activity, negative = inhibition: at 28.9 µM (top of the series) unless noted; series mostly up to 28.9 µM
In short: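 Infected erythrocytes (Dd2, 0.3% parasitemia, 2.5% hematocrit final) are added to compound in RPMI-1640/Albumax II medium, grown 72 h at 37C in low oxygen, then lysed with saponin/Triton-X containing SYBR Green and read by fluorescence.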
For `Cc1c(F)cccc1NC(=O)N1CCCC(Cn2c(C)nc3cccnc32)C1` (configuration not stated), the Potency was inconclusive: 8.91 µM [inhibitor, single point].
With `CN1C(=O)N(CCc2ccccc2)C(=O)C12CCN(Cc1cn[nH]c1-c1ccc(F)cc1)CC2` the Potency was inconclusive: 12.6 µM [inhibitor, partial curve, poor fit].
With `COc1ccc(C(=O)N2CC(c3nc(CCOc4cccc(C)c4)no3)C2)cc1F` the Potency was inconclusive: 10 µM [inhibitor, partial curve, poor fit].
In the case of `O=S(=O)(c1ccccc1)N1CCCC(c2nc(CCOc3ccc(F)cc3)no2)C1` (configuration not stated), the “outcome” value is reported as “inactive”.
For `O=C(NCC1CCN(c2cc(-c3ccc(F)cc3)[nH]n2)CC1)c1ccc2nc[nH]c2c1`, the Potency was inconclusive: 3.98 µM [inhibitor, single point].
With `COc1cc(OC)cc(C(=O)N2CCN(c3cc(C(F)(F)F)nc(C)n3)CC2)c1` the Potency was inconclusive: 10 µM [inhibitor, single point].
With `CCN1CCCCC12Cc1ccccc1CN(C(=O)C(C)C)C2` (configuration not stated) the Potency was inconclusive: 11.2 µM [inhibitor, single point].
For `O=C(c1cc2ccccc2[nH]1)N1CCC(Cc2nncn2CC2CC2)C1` (configuration not stated), the “outcome” value was “inactive”.
In the case of `O=C1NCCCCCN(C(=O)c2ccc3ccccc3n2)[C@H]2CCC[C@@H]12`, the “activity, negative = inhibition” value is reported as inactive: -24.7%.
With `COCC1CN(C(=O)c2ccc3cc[nH]c3c2)CC12CCOCC2` (configuration not stated) the “activity, negative = inhibition” value was inactive: 16.7%.
In the case of `O=C(Cc1ccsc1)N1CCC(c2noc(C3CC3)n2)C1` (configuration not stated), the outcome is reported as “inactive [at 5.79 µM]”.
With `CCCc1nc(C(=O)N2CCC3(CCc4ccccc43)CC2)cs1` the Potency was inconclusive: 2.51 µM [inhibitor, partial curve, poor fit].
For `O=C1NC2(CCN(C(=O)c3ccccc3F)C2)Oc2ccccc21` (configuration not stated), the Potency was inconclusive: 2.51 µM [inhibitor, full curve, poor fit].
With `Cn1ncc(N2CCC(NC(=O)CC3CCCC3)CC2)cc1=O` the “activity, negative = inhibition” value was inactive: -11.4%.
In the case of `Cc1ccc2nc(C3CCN(Cc4ccc(-c5cccs5)cc4)CC3)[nH]c(=O)c2c1`, the Potency is reported as inconclusive: 3.16 µM [inhibitor, single point].
For `CC1=NS(=O)(=O)N(Cc2ccccc2)C=C1C(=O)OCc1nc(-c2ccccc2C)no1`, the Potency was inconclusive: 7.94 µM [inhibitor, single point].
In the case of `CN(C)C[C@@H]1CN(C2CCOCC2)C[C@H]1NC(=O)c1cn(C)cn1`, the “activity, negative = inhibition” value is reported as inactive: 41.9%.
For `COCc1nc(-c2ccc(OC3CCN(C(=O)c4n[nH]c5ccccc45)C3)cc2)no1` (configuration not stated), the activity, negative = inhibition was inactive: 84.9% [at 5.79 µM].
With `CC(C)c1ccc(N2CC(C(=O)NCc3cncn3C3CC3)CC2=O)cc1` (configuration not stated) the Potency was inconclusive: 0.178 µM [inhibitor, full curve, poor fit].
In the case of `O=C(Cn1ccn2nc3c(c2c1=O)CCCCC3)Nc1ccccc1F`, the “outcome” value is reported as “inactive”.
With `Cc1ccc(NC(=O)Cn2cc(S(=O)(=O)N3CCCC3)c(S(=O)(=O)N3CCCC3)c2)c(C)c1` the Potency was inconclusive: 10 µM [inhibitor, single point].
In the case of `COc1cccc(S(=O)(=O)N2CCCN(C(=O)C3CC3)C(c3ccccc3)CC(=O)NCC2)c1` (configuration not stated), the Potency is reported as inconclusive: 8.91 µM [inhibitor, partial curve].
In the case of `CCn1cc(C(=O)NC(C)c2ccccc2)c(=O)c2cc(S(=O)(=O)N3CCc4ccccc4C3)ccc21` (configuration not stated), the Potency is reported as inconclusive: 17.8 µM [inhibitor, single point].
With `CCOCCn1c(=O)n(Cc2c(C)noc2C)c2cc(C(=O)O)cnc21` the Potency was inconclusive: 3.98 µM [inhibitor, single point].
With `CCN(C(=O)CCC(=O)N1CCCC(Cc2nncn2-c2ccccc2)C1)c1ccccc1` (configuration not stated) the Potency was inconclusive: 17.8 µM [inhibitor, single point].
In the case of `Cc1cccc(CN2CCCC3(CCN(C(=O)Cc4cccnc4)C3)C2=O)c1` (configuration not stated), the Potency is reported as inconclusive: 17.8 µM [inhibitor, single point].
In the case of `Cn1cnnc1-c1nn(C)c2c1CNCC2`, the “activity, negative = inhibition” value is reported as inactive: -1.45%.
With `COc1ccc(-n2nc(C(=O)N3CCN(c4cccc(C)c4)C(C)C3)c3c4ccccc4n(C)c3c2=O)cc1` (configuration not stated) the Potency was active: 11.2 µM.
In the case of `COCC(=O)Nc1ccc(-c2noc([C@@H]3CCCN3C(C)C)n2)cn1`, the Potency is reported as inconclusive: 12.6 µM [inhibitor, single point].
With `CCn1ccc(-c2c(-c3ccccc3)ncn2CCN(C)S(C)(=O)=O)n1` the “activity, negative = inhibition” value was inactive: 15.3%.
For `Cc1cccc(OCC(=O)Nc2ccc3c(c2)N(C)C(=O)c2ccccc2S3)c1`, the Potency was inconclusive: 11.2 µM [inhibitor, single point].
For `Cc1cccc(NC(=O)CSc2nc3c([nH]c4ccccc43)c(=O)n2-c2ccc(F)cc2)c1C`, the Potency was active: 4.47 µM.
For `Cc1ccc(CC(=O)N[C@@H]2CN(c3ccncn3)C[C@H]2CO)cc1`, the “activity, negative = inhibition” value was inactive: 20.7%.
In the case of `Cc1ccccc1CN1C[C@@H]2C(=O)N(Cc3ccc4c(c3)OCO4)C(=O)[C@@H]2C1`, the “activity, negative = inhibition” value is reported as inactive: 3.71%.
With `Cn1cc(CC(=O)N2CCCc3ncc(C(=O)Nc4cccc(Cl)c4)cc32)c2ccccc21` the Potency was active: 4.47 µM.
For `Cc1cccc(C(=O)NC2CCN(c3cc(-c4ccc(Cl)cc4)[nH]n3)C2)c1` (configuration not stated), the Potency was inconclusive: 2 µM [inhibitor, full curve].
With `O=C(NCCc1ccccc1)c1ccc(CSc2nc3ccncc3n2Cc2ccccc2)cc1` the Potency was active: 8.91 µM.
For `Cc1ccc(NC(=O)CSc2nc(C)cc(C)c2C(=O)Nc2cccc(C)c2)cc1`, the Potency was inconclusive: 10 µM [inhibitor, single point].
With `O=C1CCN(C(=O)c2ccco2)CCCC(CO)CCN1` (configuration not stated) the “activity, negative = inhibition” value was inactive: 45.7%.
With `COc1ccc(-c2cnc([C@@H]3COCCN3Cc3cccc(C#N)c3)[nH]2)cc1` the Potency was inconclusive: 14.1 µM [inhibitor, partial curve, poor fit].
For `COc1ccc(C2(c3nc(C4CC(=O)N(C5CCCCC5)C4)no3)CC2)cc1` (configuration not stated), the Potency was active: 11.2 µM.
In the case of `CC(C)Sc1ncc(Cl)c(C(=O)Nc2ccc(S(=O)(=O)N3CCCCC3C)cc2)n1` (configuration not stated), the Potency is reported as inconclusive: 12.6 µM [inhibitor, partial curve, poor fit].
For `COc1ccc(C(=O)N2CCC(n3cc(-c4nc(C(C)C)no4)nn3)CC2)cc1F`, the Potency was inconclusive: 17.8 µM [inhibitor, single point].
For `CC(C)Oc1cccc2c1c(NC(=O)c1cccnn1)nn2Cc1ccccc1`, the Potency was inconclusive: 11.2 µM [inhibitor, partial curve, poor fit].
With `COCC1CN(Cc2ccc(OC(F)(F)F)cc2)CC12CCNCC2` (configuration not stated) the Potency was inconclusive: 5.62 µM [inhibitor, partial curve, poor fit].
In the case of `O=C(NC1CC1)C1CCN(C2CCN(C(=O)c3c(O)cccc3O)CC2)CC1`, the “activity, negative = inhibition” value is reported as inactive: -10.6%.
For `C=C[C@H]1CN2CC[C@H]1C[C@@H]2CNC(=O)Nc1ccc(C(C)=O)cc1`, the “activity, negative = inhibition” value was inactive: -30.5% [at 44.1 µM].
With `Clc1ccccc1CNC[C@H]1Cn2cc(-c3ccccc3)nc2CO1` the Potency was inconclusive: 22.4 µM [inhibitor, single point].
In the case of `COc1ccc(C)cc1NC(=O)CC1CCCN(c2cn[nH]c(=O)c2)C1` (configuration not stated), the “activity, negative = inhibition” value is reported as inactive: -23.4%.
With `N#Cc1cc2c(nc1SCC(=O)Nc1ccc(C(F)(F)F)cc1)C1CCN2CC1` the Potency was inconclusive: 11.2 µM [inhibitor, single point].
With `Cn1ccnc1CN1CCC2(CC1)COCCN2C(=O)OCc1ccccc1` the Potency was inconclusive: 10 µM [inhibitor, single point].
For `COc1ccc(Br)cc1CNC(=O)CN1C(=O)CSc2ccc(S(=O)(=O)N3CCOCC3)cc21`, the Potency was inconclusive: 10 µM [inhibitor, single point].
In the case of `Cc1ccc(F)cc1S(=O)(=O)N1CC(C(=O)NC2CCCCC2)C2(CCOCC2)C1` (configuration not stated), the Potency is reported as inconclusive: 17.8 µM [inhibitor, single point].
With `CCC(Sc1nnc(-c2ccc(OC)cc2)c(-c2ccc(OC)cc2)n1)C(=O)Nc1cccc(OC)c1` (configuration not stated) the Potency was inconclusive: 17.8 µM [inhibitor, single point].
With `Cn1cccc1C(=O)N1CCC2(CC1)CN(Cc1ccccc1)CC2CO` (configuration not stated) the Potency was inconclusive: 6.31 µM [inhibitor, partial curve].
For `Cc1ccc(/C=C/c2onc(C)c2S(=O)(=O)N2CCC(C(=O)NCc3ccc(N(C)C)cc3)CC2)cc1`, the Potency was inconclusive: 7.08 µM [inhibitor, partial curve].
For `CCCCS(=O)CC(O)CSc1nc(-c2ccc(OC)cc2)cc(-c2ccccc2)c1C#N` (configuration not stated), the Potency was inconclusive: 10 µM [inhibitor, single point].
In the case of `COCCN1CCCN(C(=O)c2ccccc2Cl)c2ccccc21`, the Potency is reported as inconclusive: 17.8 µM [inhibitor, single point].
With `CC(C)NC(=O)CN1CCN(Cc2cc(=O)c3cccc(Cl)c3[nH]2)CC1` the Potency was inconclusive: 10 µM [inhibitor, partial curve].
With `CNCc1ccccc1C(F)(F)F` the “activity, negative = inhibition” value was inactive: 50% [at 44.1 µM].
In the case of `CN(C)c1ccc2ncc(Nc3ccccc3Cl)n2n1`, the “activity, negative = inhibition” value is reported as inactive: -16.3% [at 44.1 µM].
For `Cc1noc(C)c1C(=O)N1CCCn2ccnc2C1C(C)C` (configuration not stated), the “activity, negative = inhibition” value was inactive: 16.8%.
For `O=C(Nc1cccc2ccccc12)O[C@@H]1CO[C@H]2[C@@H]1OC[C@@H]2NS(=O)(=O)Cc1ccccc1`, the Potency was inconclusive: 8.91 µM [inhibitor, partial curve].
With `CN(Cc1ccccc1)C(=O)C1CCN(Cc2cc3ccccc3n2Cc2ccccc2)CC1` the Potency was inconclusive: 10 µM [inhibitor, partial curve].
With `O=C(Nc1cccc(Cl)c1)N1CC(n2cc(COc3ccccc3)nn2)C1` the Potency was active: 7.94 µM.
In the case of `CCn1cnnc1-c1nn(C)c2c1CN(C(=O)c1[nH]nc3c1CCc1cc(OC)ccc1-3)CC2`, the Potency is reported as inconclusive: 1.12 µM [inhibitor, partial curve, poor fit].
In the case of `COc1ccc(C(=O)N/C(=C\c2cn(S(=O)(=O)N(C)C)c3ccccc23)C(=O)NCCCn2ccnc2)cc1`, the Potency is reported as inconclusive: 11.2 µM [inhibitor, single point].
